Laboratory results from PubChem BioAssay AID504332 (National Center for Advancing Translational Sciences (NCATS), 2011).
About 31,000 (8.9%) of roughly 350,000 compounds were called active. This list was built around the results that the source calls inconclusive (neither active nor inactive); the mix of calls is not that of the screen. Calls come from the whole dose curve; as a rule, active = well fitted inhibition curve with a large enough effect; inconclusive = small, poorly fitted or top-dose-only effect; inactive = no such curve, though single readings can be large or run the other way. Where the call is inconclusive, the potency comes from a doubtful curve fit.

biological target: Histone-lysine N-methyltransferase EHMT2 (Homo sapiens) (UniProt Q96KQ7); test: qHTS Assay for Inhibitors of Histone Lysine Methyltransferase G9a; settings: G9a H3K9 monomethylation, AlphaScreen, 2 h; activity, negative = inhibition: at 59 µM (top of the series) unless noted; note: nearly all actives have a fitted effect of over 75% in size
Method in brief: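 AlphaScreen detection with an anti-monomethyl H3K9 antibody quantified product after a 2 h room-temperature reaction containing 500 nM biotinylated H3K9 peptide, 20 µM SAM and 20 nM enzyme, which had been preincubated 15 min with compound.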
% is set by controls: 0 for no effect and ±100 for the full control effect; potency is the fitted concentration of half-maximal effect; tags give direction and shape of the fitted curve.

Chain of UniProt Q96KQ7 (Q96KQ7 whole entry, looked up): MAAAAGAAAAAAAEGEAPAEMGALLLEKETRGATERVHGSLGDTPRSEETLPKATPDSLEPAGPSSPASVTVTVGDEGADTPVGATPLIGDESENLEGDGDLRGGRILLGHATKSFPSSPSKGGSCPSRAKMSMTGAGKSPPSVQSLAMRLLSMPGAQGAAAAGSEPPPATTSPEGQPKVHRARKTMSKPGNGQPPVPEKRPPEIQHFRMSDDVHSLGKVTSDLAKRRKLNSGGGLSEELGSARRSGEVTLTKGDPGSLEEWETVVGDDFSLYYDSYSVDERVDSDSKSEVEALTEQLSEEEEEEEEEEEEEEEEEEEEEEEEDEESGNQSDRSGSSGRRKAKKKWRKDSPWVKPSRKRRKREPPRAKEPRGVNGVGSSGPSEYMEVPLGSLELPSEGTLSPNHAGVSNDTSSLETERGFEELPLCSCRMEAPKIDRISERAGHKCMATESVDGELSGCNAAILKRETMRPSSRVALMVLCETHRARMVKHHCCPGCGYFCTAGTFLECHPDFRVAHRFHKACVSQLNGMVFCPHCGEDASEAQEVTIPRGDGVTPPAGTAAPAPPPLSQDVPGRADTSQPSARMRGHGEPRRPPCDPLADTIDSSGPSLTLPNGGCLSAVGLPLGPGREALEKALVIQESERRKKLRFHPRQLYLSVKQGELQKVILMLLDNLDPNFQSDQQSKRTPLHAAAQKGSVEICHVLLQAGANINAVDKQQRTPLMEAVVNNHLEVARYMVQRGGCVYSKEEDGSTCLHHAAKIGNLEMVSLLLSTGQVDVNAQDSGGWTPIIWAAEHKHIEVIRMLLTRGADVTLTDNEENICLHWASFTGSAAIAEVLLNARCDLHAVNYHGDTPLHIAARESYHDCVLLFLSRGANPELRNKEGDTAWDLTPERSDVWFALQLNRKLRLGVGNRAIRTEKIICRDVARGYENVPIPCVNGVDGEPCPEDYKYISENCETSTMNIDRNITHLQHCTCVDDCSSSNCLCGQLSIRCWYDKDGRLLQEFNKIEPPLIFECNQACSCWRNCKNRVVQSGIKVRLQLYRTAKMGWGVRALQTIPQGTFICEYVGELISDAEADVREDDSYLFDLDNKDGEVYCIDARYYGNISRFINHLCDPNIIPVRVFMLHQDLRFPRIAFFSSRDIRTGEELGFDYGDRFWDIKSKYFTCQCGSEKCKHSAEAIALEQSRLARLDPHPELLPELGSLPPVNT

| SMILES | Potency | activity, negative = inhibition |
| --- | --- | --- |
| O=C1Nc2ccccc2Nc2ncccc21 | inconclusive: 3.16 µM [inhibitor, partial curve, poor fit] |  |
| Cc1ccc2oc(C(=O)Nc3ccc(S(=O)(=O)Nc4onc(C)c4C)cc3)c(C)c2c1 | inconclusive: 89.1 µM [inhibitor, single point] |  |
| Cc1nc([N+](=O)[O-])c(SCC(O)CCl)n1Cc1ccc(Cl)cc1 (configuration not stated) | active: 28.2 µM |  |
| C=CCc1cccc(C=Nc2cc(Br)ccc2O)c1O | active: 44.7 µM |  |
| COc1ccc(OC)c(-c2csc(NC(=O)COC(=O)c3ccc(NC(=O)CC#N)cc3)n2)c1 |  | inactive: 10.7% [at 12.7 µM] |
| COc1cccc(C(C(=O)NC2CCCC2)N(C(=O)c2ccco2)c2cccc(C(C)=O)c2)c1OC (configuration not stated) | inconclusive: 35.5 µM [inhibitor, partial curve, poor fit] |  |
| O=C(c1cccc(F)c1)N1CCC2(CCCN(c3ccc(-c4ccccc4)cc3)C2)CC1 |  | inactive: -2.67% [at 12.7 µM] |
| CC1=C(C(=O)Nc2ccccc2Cl)C(c2ccc(N(C)C)cc2)NC(=O)N1 (configuration not stated) | inconclusive: 63.1 µM [inhibitor, partial curve, poor fit] |  |
| CSc1ccc(NC(=O)N2CCC(C(=O)c3ccc(F)cc3)CC2)cc1 | inconclusive: 79.4 µM [inhibitor, single point] |  |
| Nc1c2c(nn1-c1ccc(C(=O)O)cc1)CNC2 | inconclusive: 79.4 µM [inhibitor, single point] |  |
| O=C(NCC1OCCc2ccccc21)c1ccco1 (configuration not stated) |  | inconclusive: -76.3% [inhibitor] |
| Cc1nn(C)cc1-c1csc(N)n1 | inactive |  |
| CN1c2ccccc2C(O)=C(C(=S)Nc2ccc(Cl)cc2)S1(=O)=O |  | inconclusive: -90.6% [inhibitor] |
| COc1ccc(CCNC(=O)c2cnc3sc(N4CCCCC4)nn3c2=O)cc1OC | inactive |  |
| CN(C)c1ccnc(Nc2ccccc2)c1C#N | inactive |  |
| CC(C)(C)NC(=O)Cn1nnc(-c2ccc(OCc3c(F)cccc3Cl)cc2)n1 | inactive |  |
| COc1ccc(CCNC(=O)Cn2c(=O)c3cccn3c3ccc(F)cc32)c(OC)c1 | inactive |  |
| Cc1ccc(C)c(-c2nnc(NC(=O)c3ccc4c(c3)OCCO4)o2)c1 | inactive |  |
| COc1ccc(S(=O)(=O)N2CCc3ccccc32)cc1C(=O)OCC(=O)c1c(N)n(C)c(=O)n(C)c1=O | inconclusive: 56.2 µM [inhibitor, single point] |  |
| CC(C)(C)C(=O)NC(=S)Nc1sc2c(c1C#N)CCCCC2 | inconclusive: 20 µM [inhibitor, single point] |  |
| CCCCN(CCCC)CC(O)COc1ccc(Br)cc1 (configuration not stated) | active: 7.94 µM |  |
| CCOC(=O)N1CCC(NC(=O)c2ccc3snnc3c2)CC1 | inconclusive: 28.2 µM [inhibitor, single point] |  |
| Cc1ccc(C2c3[nH]c4ccccc4c3C[C@H]3C(=O)N(c4ccccc4C(=O)N4CCC[C@@H]4C(=O)O)C(=O)N23)cc1 (some centres not stated) |  | inactive: 12.1% [at 12.7 µM] |
| COc1ccc(-n2c(COc3ccc4c(c3)OCO4)nnc2SCC(=O)O)cc1 | active: 50.1 µM |  |

| SMILES | Potency | activity, negative = inhibition |
| --- | --- | --- |
| CSCC[C@H](NC(=O)C1CCN(S(=O)(=O)c2ccc(C)cc2)CC1)C(=O)NCC1CCCO1 (some centres not stated) | inconclusive: 6.31 µM [inhibitor, single point] |  |
| CCOC(=O)c1c(NC(=O)COC)sc(C(C)=O)c1C | inconclusive: 22.4 µM [inhibitor, single point] |  |
| Cc1cc(=S)cc(C)n1CCO | active: 12.6 µM |  |
| Cc1ccc(NC(=S)NNC(=O)c2nnn(-c3ccccc3)c2C)cc1 | inconclusive: 25.1 µM [inhibitor, single point] |  |
| COc1ccc(NC(=O)CCCC(=O)NCCc2ccc(OC)c(OC)c2)cc1 | inactive |  |
| CCN(C(=O)CCN1C(=O)S/C(=C\c2ccccc2)C1=O)C1CCS(=O)(=O)C1 (configuration not stated) | inactive |  |
| Cc1nc2sc(C(=O)N(C)c3ccccc3)c(NC(=O)c3ccccc3Cl)c2c(C)c1C | inactive |  |
| CNC(=S)N1CCN(c2nc(-c3ccc(Cl)cc3)cs2)CC1 | inactive |  |
| COc1ccc(-c2nnc3n(CCc4ccccc4)c(=O)c4ccccc4n23)cc1OC | inconclusive: 79.4 µM [inhibitor, single point] |  |
| CC(C)OC(=O)CSc1nnc(-c2cccnc2)n1Cc1ccccc1 | inconclusive: 3.55 µM [inhibitor, partial curve, poor fit] |  |
| c1ccc(-c2cccc(N3CC4(CCNCC4)C3)c2)cc1 |  | inactive: 0.588% [at 12.7 µM] |
| CCn1c(=O)c(C(=O)NCc2ccc(F)cc2)c(O)c2ccccc21 | inactive |  |
| Cc1cc(C)n(-c2nnc(NC34CC5CC(CC(C5)C3)C4)nn2)n1 | active: 22.4 µM |  |
| COc1ccc(CCN2C(=NC(=O)C(C)C)SC3CS(=O)(=O)CC32)cc1 (configuration not stated) | inconclusive: 79.4 µM [inhibitor, single point] |  |
| O=C(Nc1cccc(NC(=O)c2nccc3ccccc23)c1)c1ccco1 | active: 44.7 µM |  |
| COC(=O)c1cc(C(=O)OC)cc(-n2c(C)cc(C(=O)COC(=O)CNS(=O)(=O)c3ccc(C)cc3)c2C)c1 | inconclusive: 25.1 µM [inhibitor, single point] |  |
| CC1=C(C(=O)OC2CCCCC2)C(c2ccccc2Br)NC(=O)N1 (configuration not stated) | inconclusive: 39.8 µM [inhibitor, single point] |  |
| CC1CN(C(=S)NC(=O)c2ccco2)CC(C)O1 (configuration not stated) | inconclusive: 7.94 µM [inhibitor, partial curve, poor fit] |  |
| CCOC(=O)c1c(NC(=O)c2cc(CC(C)C)on2)sc(C(C)=O)c1C | active: 7.94 µM |  |
| Cc1ccc(CN(C(=O)COc2ccc(Cl)cc2C)C2CCS(=O)(=O)C2)o1 (configuration not stated) | inactive |  |
| OC1CN=C2CCCc3c2n(c2ccc(Cl)cc32)C1 (configuration not stated) |  | inconclusive: -83.3% [inhibitor] |
| O=CN1Cc2ccccc2-c2ccccc2C1 | inactive |  |
| CN1CCCCc2c1nc1c(c2N)CCCC1 | inconclusive: 8.91 µM [inhibitor, partial curve, poor fit] |  |
| CCCCOc1ccc(C(=O)Nc2ccc(N3CCN(C)CC3)cc2)cc1 | inconclusive: 39.8 µM [inhibitor, single point] |  |

| SMILES | Potency | activity, negative = inhibition |
| --- | --- | --- |
| Cc1ccccc1-c1cn(-c2ccccc2)c(=S)[nH]1 | active: 1.41 µM |  |
| O=C(Nc1ccc(OC(F)(F)F)cc1)c1cccc(-n2cnnn2)c1 | inconclusive: 50.1 µM [inhibitor, partial curve, poor fit] |  |
| Cc1ccc(OCC(=O)N(Cc2ccco2)Cc2ccco2)cc1C | inconclusive: 22.4 µM [inhibitor, partial curve, poor fit] |  |
| O=C(Cn1c2ccccc2c(=O)c2ccccc21)N/N=C/c1ccc(N2CCCC2)c([N+](=O)[O-])c1 | inactive |  |
| COc1ccc(/C=N/Nc2nc3ccccc3s2)cc1O | inconclusive: 39.8 µM [inhibitor, partial curve, poor fit] |  |
| CCc1c(O)nc(SCC(=O)Nc2nc3ccccc3s2)n(-c2ccc(C)cc2)c1=O | inconclusive: 79.4 µM [inhibitor, single point] |  |
| Cc1ccc(N2CCCC2=O)cc1S(=O)(=O)N1CCOCC1 | inactive |  |
| Cc1ccc(N(CC(=O)N2CCN(c3ccc(F)cc3)CC2)S(=O)(=O)c2c(C)nn(C)c2C)cc1 | inconclusive: 89.1 µM [inhibitor, single point] |  |
| COc1ccc(C(=O)Nc2nc3ccc(S(=O)(=O)N4CCCC4)cc3s2)cc1 | inconclusive: 35.5 µM [inhibitor, partial curve, poor fit] |  |
| Cc1ccsc1/C=N/N1CCN(c2ccccc2)CC1 |  | inactive: 18.3% [at 2.33 µM] |
| O=C(c1cc(Cl)cc(Cl)c1)N1CCC(=O)N(C(COCc2ccccc2)Cc2ccccc2)CC1 (configuration not stated) | inconclusive: 79.4 µM [inhibitor, single point] |  |
| COc1ccccc1-c1nnc(C2CCN(S(=O)(=O)c3ccccc3)CC2)o1 | inconclusive: 28.2 µM [inhibitor, partial curve, poor fit] |  |
| CC(=O)Nc1cccc(C(=O)OCC(=O)NC(C)c2ccc(F)cc2)c1 (configuration not stated) | inactive |  |
| Cc1ccc(NC(=O)CN(C)C(=O)c2cc(S(=O)(=O)N(C)C)ccc2N2CCCC2)cc1 | inactive |  |
| COc1ccc([C@H]2C=C3CN(C(=O)OC(C)(C)C)S(=O)(=O)[C@H]3C[C@H]2OC(=O)c2cccs2)cc1 |  | inactive: 8.59% [at 12.7 µM] |
| COc1ccc(-c2nc(C(=O)O)cs2)cc1OC | inconclusive: 89.1 µM [inhibitor, single point] |  |
| O=C(O)C1=C(CSc2nnnn2CS(=O)(=O)O)CS[C@@H]2[C@H](NC(=O)[C@H](O)c3ccccc3)C(=O)N12 | inconclusive: 1.41 µM [inhibitor, partial curve, poor fit] |  |
| Nc1nc(Cl)cc(N2CCC(c3cc(-c4ccc(Cl)cc4Cl)n[nH]3)CC2)n1 | inconclusive: 89.1 µM [inhibitor, single point] |  |
| COc1cccc(N2CCN(C(=O)Cn3cnc4onc(-c5ccc(F)cc5)c4c3=O)CC2)c1 | inactive |  |
| O=C(C[n+]1cc[nH]c1)c1ccc(Cl)cc1 | inactive |  |
| COc1ccc(C(=O)NCCN2CCCC2)cc1OC | inconclusive: 31.6 µM [inhibitor, single point] |  |
| Nc1nc2ccc([N+](=O)[O-])c(N)c2s1 |  | inactive: -45.7% [at 0.0925 µM] |
| CSc1ccc(S(=O)(=O)Nc2ccc(OCC(=O)N3CCOCC3)cc2)cc1 | active: 11.2 µM |  |
| COc1ccc(N(C(=O)Cn2nnc3ccccc32)C(C(=O)NCc2ccco2)c2ccc(C)o2)cc1 (configuration not stated) | active: 50.1 µM |  |
